This note sets out measurements from ChEMBL document CHEMBL4888484, “Replenishing the malaria drug discovery pipeline: Screening and hit evaluation of the MMV Hit Generation Library 1 (HGL1) against asexual blood stage Plasmodium falciparum ,using a nano luciferase reporter read-out” (2022).

Screen size: about 150,000 compounds; about 540 (0.36%) showed an effect of 50% or more. This is one part of the list.

Broadly, the % Inhibition is the relative decrease from the control value, in per cent.

The subject of this assay is Plasmodium falciparum. Nature of the assay: Primary screen in NF54 nanoGlo assay, in single point, at 2uM, 72h; a lower Z score goes with more inhibition. It counts as functional, Erythrocyte. Particulars: timepoint 72 hour.
Consider `O=C1CC[C@H](NCc2cscn2)CCN1Cc1ccccc1`, for which the “% Inhibition” value was determined as 0% and the Z score is given as -0.04.
On to `O=C(c1cnns1)N1CCN(Cc2ccc(Cl)s2)CC1`, for which the “% Inhibition” value was -9% and the Z score was found to be 1.15.
Regarding `O=C(c1cc(F)c(F)cc1F)N1CCC(n2ccnn2)CC1`, the “% Inhibition” value is recorded as -2% and the Z score was determined as 0.22.
For `CCC[C@H](O)CN(Cc1ccccc1)Cc1c(C)nn(-c2ccccc2)c1Oc1ccccc1OC`, the “% Inhibition” value was -2% and the Z score was 0.2.
`CCS(=O)(=O)C1CN(C(=O)c2cn(-c3ccccc3)c(=O)cc2OC)C1`: the “% Inhibition” value is recorded as -9% and the Z score is 1.82.
The corresponding values for `Cc1cc2nc(C)c(=O)n(CC(=O)NC[C@H]3CCCO3)c2cc1C` are -1% and 0.16.
For `O=C(Cn1c(=O)n(Cc2ccc3c(c2)OCO3)c(=O)c2sccc21)Nc1ccc(Cl)cc1F`, in that order: 38% and -1.39.
As for `Cn1cc(-c2cc3n(n2)CCC(=O)N3CC(=O)NCCCN2CCOCC2)c2ccccc21`, the “% Inhibition” value is recorded as 3% and the Z score was -0.54.
With `Cn1c(=O)[nH]cc(CC(=O)N2CC(Oc3ccccc3F)C2)c1=O`, the “% Inhibition” value is recorded as -3% and the Z score was found to be 0.72.
Take `O=C(NCC1CCCCC1)C1CCN(Cc2nc3ccccc3[nH]2)CC1`: the “% Inhibition” value is given as -18% and the Z score is 2.68.
With `CC=Cc1ccc(OCC(=O)N(CCOC)c2c(N)n(CCCC)c(=O)[nH]c2=O)c(OC)c1`, the “% Inhibition” value is reported as -9% and the Z score was 0.89.
Turning to `CC1(C)CC[C@H](NC(=O)c2cc3c(=O)[nH]cnc3cn2)c2ccccc21`, the “% Inhibition” value was 3% and the Z score is -0.59.
With `O=C(c1ccc2ccccc2n1)N1CC[C@H](Cc2nnc(-c3ccccc3)o2)C1`, the “% Inhibition” value is -19% and the Z score came to 2.77.
As to `Cn1nc2n(c1=O)C[C@@H](C(=O)NCc1nc3c(s1)CCCC3)CC2`, the “% Inhibition” value was -15% and the Z score is on record as 2.06.
With `COc1ccccc1C(=O)N[C@H](C(=O)NCc1n[nH]c(C)n1)C(C)C`, the “% Inhibition” value came to 10% and the Z score is on record as -1.59.
In the case of `CC(C)CN1CCN(C(=O)c2cn3cc(Cl)ccc3n2)CC1`, the “% Inhibition” value was -6% and the Z score is recorded as 0.86.
For `Cc1cc(CNc2cc(Cl)ccc2C(=O)N2CCCCC2)no1`, the “% Inhibition” value stood at 11% and the Z score was -1.72.
In the case of `O=C(c1ccc(Cl)cc1-n1cnnn1)N1CC[C@@]2(O)CCCC[C@H]2C1`, the “% Inhibition” value is -5% and the Z score turned out to be 0.56.
For `CC[C@H]1OCC[C@@H]1NS(=O)(=O)c1cc(C)cs1`, in that order: 13% and -1.59.
`CN(C)C(=O)CCN(Cc1nccn1C)C1CC1`: the “% Inhibition” value was found to be 3% and the Z score is recorded as -0.6.
The corresponding values for `CCC(F)(F)C(C)(C)CS(=O)(=O)N1CCC[C@H](N(C)C)CC1` are -1% and 0.09.
On to `Cc1noc(-c2c(C)sc(C)c2S(=O)(=O)NCc2ccccc2)c1C`, for which the “% Inhibition” value is reported as -7% and the Z score worked out at 1.25.
`O=C(Cn1ncccc1=O)Nc1ccnn1C1CCCC1`: the “% Inhibition” value was -11% and the Z score came out at 2.09.
For `Cc1nc(NC2CC2)sc1C(=O)NC1CCCC1`, in that order: -12% and 1.65.
The corresponding values for `CCn1nc(C(=O)NC[C@H](Cc2ccc3ccccc3c2)C(=O)O)ccc1=O` are -8% and 0.92.
Turning to `O=C(NCc1cccc(C(=O)N2CCCC2)c1)NC1CCCCC1`, the “% Inhibition” value is given as -12% and the Z score worked out at 1.56.
In the case of `CC(C)Cc1noc(CN(C)[C@@H](C)C(=O)Nc2nccs2)n1`, the “% Inhibition” value is reported as -5% and the Z score turned out to be 1.04.
On to `COc1cc(C)c(S(=O)(=O)N2CCO[C@H](C)[C@H]2C(N)=O)cc1Cl`, for which the “% Inhibition” value is -3% and the Z score was determined as 0.45.
Consider `CC[C@](C)(NCc1cc2ccccc2s1)c1nc(C)cs1`, for which the “% Inhibition” value is -10% and the Z score came out at 1.52.
Take `Cc1nc2c(c(=O)n1CC(=O)Nc1ccccc1)CCN(Cc1ccccc1)C2`: the “% Inhibition” value turned out to be 31% and the Z score is listed as -3.52.
The corresponding values for `Cc1ccc(-c2nc(C(=O)N3CCN(Cc4ccc5c(c4)OCO5)CC3)no2)cc1` are -9% and 0.85.
In the case of `Cn1ccnc1[C@@H](CC(=O)NCCC(C)(C)C(=O)O)C(F)(F)F`, the “% Inhibition” value was 17% and the Z score is given as -2.03.
The corresponding values for `Cc1nc(CN2CC[C@@]3(CCCN(C(=O)OCC(C)(C)C)C3)C2)c[nH]1` are -3% and 0.66.
The corresponding values for `COc1ccc(-c2cnc3ncnn3c2NCc2cc(F)cc(F)c2)cc1OC` are -15% and 2.22.
With `O=C(CC1CCCC1)Nc1cnc2c(c1)CCC2`, the “% Inhibition” value is reported as -7% and the Z score is reported as 1.07.
The corresponding values for `Cc1ccc(CN(c2ccc(C(=O)N3CCCCCC3)cc2)S(C)(=O)=O)cc1` are 1% and -0.14.
As for `Cc1cccc(C2c3cc(OC(C)C(=O)NCc4cccc(F)c4)ccc3CCN2C(=O)c2ccccc2)c1` (centres undefined), the “% Inhibition” value is on record as -23% and the Z score is on record as 2.18.
On to `COCc1nc(C)c(CNC(=O)[C@]2(C)CCCO2)s1`, for which the “% Inhibition” value came out at 5% and the Z score is -0.64.
Take `CC[C@H](NC(=O)c1cc(C)ccc1OCCN)c1nccs1`: the “% Inhibition” value was -6% and the Z score was 1.29.
`CC1CC(C)CN(S(=O)(=O)c2ccc(F)c(C(=O)NC(c3ccccc3)c3ccccc3)c2)C1` (centres undefined): the “% Inhibition” value was found to be 2% and the Z score is given as -0.19.
Consider `COc1ccc([C@@]2(CC(=O)N(C)C3CCOCC3)CC(=O)N(C3CCCC3)C2=O)cc1`, for which the “% Inhibition” value is 12% and the Z score is recorded as -1.57.
Consider `CCCCCNc1ccccc1C(=O)O`, for which the “% Inhibition” value was -14% and the Z score is on record as 1.44.
